{"source": "the supplement of paper PMC11417369", "note": "The list shows a part of the results."}
{"system": "PfAP2-HC AP2 domain (GST-tagged)", "experiment": "gcPBM binding intensity (ln(normalized median fluorescence intensity)); higher = stronger DNA binding", "in_short": "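GST-tagged P. falciparum DNA-binding domains, expressed in E. coli (about 25 μg on average), were applied for 1 h to an Agilent 4 × 180k array of primer-extended double-stranded 36-bp intergenic genomic probes plus negative controls. The binding buffer was 1× PBS with 1% milk, 0.2 mg/ml BSA, 0.5% salmon testes DNA and 0.03% Triton X-100. Bound protein was detected with Alexa488 anti-GST antibody and scanned at 488 nm. Binding intensity is the highest Masliner-normalised natural-log median intensity across replicate spots of either probe orientation.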"}
{"sequence": "TTTCGTTGTGTATTTTGTACATATTTTTAATTATAT [XGTACX_site6687]", "gcPBM binding intensity (ln)": 9.91}
{"sequence": "TTTTTTTTTTATTCTTCACACATTTCCAATAAAAAA [CACACA_site5601]", "gcPBM binding intensity (ln)": 9.53}
{"sequence": "ACCTAAAATAACTACACACACATAAAAAAAAAAAAA [CACACA_site2529]", "gcPBM binding intensity (ln)": 10.2}
{"sequence": "GTTATTATATATATGTGTACTTAAAAATTTTATGTC [XGTACX_site6084]", "gcPBM binding intensity (ln)": 9.68}
{"sequence": "TATAACAAAAAAAAATAAAAAATAAAACTATATATA [CACACA_negctrl_site504]", "gcPBM binding intensity (ln)": 9.6}
{"sequence": "AATAAAAAAAAAATAAATTTAATAATAATAATAAAA [CACACA_negctrl_site569]", "gcPBM binding intensity (ln)": 9.51}
{"sequence": "TTTATATATTTTAGGAGTACATTAAATTATACCTTA [XGTACX_site5600]", "gcPBM binding intensity (ln)": 9.42}
{"sequence": "TGTATATATATTTATGCATGCTGTGTGTATTCTTTT [TGCATGCA_site74]", "gcPBM binding intensity (ln)": 10.1}
{"sequence": "AAAAAAAAAAAAAAAACACACAGAAATATATATATA [CACACA_site4611]", "gcPBM binding intensity (ln)": 9.72}
{"sequence": "AAAGAAGGGAAACACACACACACACCCACAAAAAAA [CACACA_site3766]", "gcPBM binding intensity (ln)": 11.4}
{"sequence": "TATATAAGGAAATATTGTACTTTTATATTTATATTA [XGTACX_site3814]", "gcPBM binding intensity (ln)": 9.45}
{"sequence": "ATATAAAAATATAATACACACATAAAATATATTATA [CACACA_site969]", "gcPBM binding intensity (ln)": 9.97}
{"sequence": "TTTCTTTTTATATTCACACATAAATATATATATATA [CACACA_site6053]", "gcPBM binding intensity (ln)": 9.63}
{"sequence": "AAAAAAAAAAAACACACACACACATACCCATACATA [CACACA_site5575]", "gcPBM binding intensity (ln)": 11.3}
{"sequence": "TACATTTAAAAAAAAACACACATATATATATATATA [CACACA_site2535]", "gcPBM binding intensity (ln)": 9.92}
{"sequence": "ATATATTTGTATAATAGTACGTACAGGCAAAATATA [XGTACX_site7396]", "gcPBM binding intensity (ln)": 9.84}
{"sequence": "TGTATGCTTACATAATGTACGGAAAAATAAAGGCAT [XGTACX_site6923]", "gcPBM binding intensity (ln)": 9.7}
{"sequence": "ATATATAAATAATGTTGTACGTATTTCAAAAGTATG [XGTACX_site3363]", "gcPBM binding intensity (ln)": 9.73}
{"sequence": "ATAATAATAATAAAAAGTACAAATTATTATATATAT [XGTACX_site5160]", "gcPBM binding intensity (ln)": 9.71}
{"sequence": "TGCTCTCTCTTGTTGTGTACATAATACAATATATAT [XGTACX_site7427]", "gcPBM binding intensity (ln)": 10}
{"sequence": "ATAATAAGAACTCAGTGTACTATCCTTTGAATTAAC [XGTACX_site8117]", "gcPBM binding intensity (ln)": 9.62}
{"sequence": "AACGTCTTTTTTTTTTTTTTTCTTTTTTTTTTTATT [CACACA_negctrl_site303]", "gcPBM binding intensity (ln)": 9.86}
{"sequence": "TAATTATTTTCGGTACGTACTAATGTATATATAATT [XGTACX_site3895]", "gcPBM binding intensity (ln)": 9.59}
{"sequence": "TAATAATTTTTTTTTTTTTTTTACGAAAATATGATT [GTGCAC_negctrl_site323]", "gcPBM binding intensity (ln)": 9.3}
{"sequence": "ACACATCAAATATAAAAAAAAAATAACTATAAATAA [CACACA_negctrl_site587]", "gcPBM binding intensity (ln)": 9.84}
{"sequence": "TATAAAAGTGGACACACACACATATATATATATATA [CACACA_site4673]", "gcPBM binding intensity (ln)": 9.96}
{"sequence": "TAATAAATAGGACACACACACATATTTATATATCAT [CACACA_site6771]", "gcPBM binding intensity (ln)": 11}
{"sequence": "CCTTTAAGCAAAAACACACACACATATTTATTTATA [CACACA_site6294]", "gcPBM binding intensity (ln)": 10.2}
{"sequence": "AATTTTTTTTTTTTGTTGCACTTTTAGAGTTTTAAT [GTGCAC_site9519]", "gcPBM binding intensity (ln)": 9.63}
{"sequence": "TTGCAAAATTGTTTTATCACAAATATATACTTAATA [CACACA_negctrl_site403]", "gcPBM binding intensity (ln)": 9.36}
{"sequence": "TAATTCTTGTAAAATGTGCGCAGTAGATATAGTTTT", "gcPBM binding intensity (ln)": 9.72}
{"sequence": "AGATATAAGAAAAGCACACACACACTAGAAAAAAAA [CACACA_site5559]", "gcPBM binding intensity (ln)": 11}
{"sequence": "ATATTTATTCAATCCAGTACATATTATATATTGTAT [XGTACX_site184]", "gcPBM binding intensity (ln)": 9.68}
{"sequence": "ATAAAATTATATACGTGTACATATATATATTTATGT [XGTACX_site4653]", "gcPBM binding intensity (ln)": 9.73}
{"sequence": "TTTCTTTTTTCACGTGCATGCCATTTAAGTATTAAT [TGCATGCA_site651]", "gcPBM binding intensity (ln)": 9.94}
{"sequence": "TTTGTTTGGTTTTGGTGTACTTTTTTTTTTTTTTCT [XGTACX_site2050]", "gcPBM binding intensity (ln)": 9.77}
{"sequence": "AGAATTCAACAATGTTGTACATACACACACACAAAA [XGTACX_site5035]", "gcPBM binding intensity (ln)": 10.2}
{"sequence": "GAATTATAAGAATAAACACACAAGCTTAAAAAAAAA [CACACA_site1204]", "gcPBM binding intensity (ln)": 9.73}
{"sequence": "ACATATGTATAATATGCACACGTCATTTTCCCCTTA [CACACA_site5194]", "gcPBM binding intensity (ln)": 10}
{"sequence": "ACTAAACTTATATGTACACACATATAACATTAATTT [CACACA_site2258]", "gcPBM binding intensity (ln)": 9.95}
{"sequence": "TTATTATTTGGTTATAGTACATAATATAATATATAT [XGTACX_site6911]", "gcPBM binding intensity (ln)": 9.58}
{"sequence": "CTATATTTCGTTGGACGTACAAATGTGATAATTAGG [XGTACX_site3232]", "gcPBM binding intensity (ln)": 9.43}
{"sequence": "TATATATATATGTATGCATGTTGTTTTTTATTTAAT [TGCATGCA_site343]", "gcPBM binding intensity (ln)": 9.99}
{"sequence": "CTAATTGTGTATACCTGTACATATATATATATATAT [XGTACX_site416]", "gcPBM binding intensity (ln)": 9.96}
{"sequence": "AAAAAAAAAAAGAACACACACAGTGCACATTCGGTG [CACACA_site788]", "gcPBM binding intensity (ln)": 10.4}
{"sequence": "TGTTATTCTACATATACACACAAATAACAATTTAAA [CACACA_site1824]", "gcPBM binding intensity (ln)": 9.61}
{"sequence": "TTAACTTTTTTATATGCACACATAAACAAGGATATA [CACACA_site8932]", "gcPBM binding intensity (ln)": 9.6}
{"sequence": "AATACAAAAAAAGGTACACACATAATATATTTATTA [CACACA_site2628]", "gcPBM binding intensity (ln)": 9.95}
{"sequence": "TTTCCCTCAAATAAAGTGCATTATGATTTTAATTTA", "gcPBM binding intensity (ln)": 9.51}
{"sequence": "ATGTATTTATTTTAACGTACAAGATATTATTATTAT [XGTACX_site4609]", "gcPBM binding intensity (ln)": 9.58}
{"sequence": "AAATTATATATGATGTGTACATAAATATATACACAT [XGTACX_site8761]", "gcPBM binding intensity (ln)": 9.72}
{"sequence": "ATATGGCATATTTGTATTATACATACATATGTATCT [TGCATGCA_negctrl_site562]", "gcPBM binding intensity (ln)": 10.1}
{"sequence": "AAATTATAATATAATACACACATAAAAAAAAAAAAA [CACACA_site7]", "gcPBM binding intensity (ln)": 9.79}
{"sequence": "TTATTATTCAAGAGGAGTACATTATGTGTATAATAT [XGTACX_site4995]", "gcPBM binding intensity (ln)": 9.58}
{"sequence": "TATATTTAGAGAGAGACACACAAAGGGACTTACACA [CACACA_site2545]", "gcPBM binding intensity (ln)": 9.94}
{"sequence": "TGTGTATATCGATAAAGTACATTTGAAAAGTGACTT [XGTACX_site6957]", "gcPBM binding intensity (ln)": 9.6}
{"sequence": "GTAATATGTATCCATACACACATACAGTTTATTTGC [CACACA_site6540]", "gcPBM binding intensity (ln)": 9.96}
